# Some of the results follow.
# B1: a L Fucosidase (Streptosporangium roseum), D2B1P1_STRRD (protein)
# chain: MRRKLLLVPAVGLLVIGSIFATQPVASADTPPVYEPTVESLNSHPVPQWFNDDKFGIFIHWGAYSVPAWGPRGSYAEWYGNYMNAGGSATNAHHKATYGQDFNYDAFLQQWKAEKFDPADWVKLFKDAGAKYFVLTSKHHEGMALWDSKSSGRDSVDLGPGRDLAKELFDAARKDEAKLKAGFYYSLYEWYNPAYTGRPATNPYTGAEIPYTGAPGGGDYVKDYMLPQMRELIDGYDPDIIWCDGQWEKPASYWNTAGVIADYYNKALNSGKEVAVANRCKIQSGNLDSPELDFQTPEYTVKPDIDPVKWESSRGIAHSYGYNQNEPEEDHLTSDQLVDSLVDIVSKNGNLLLDIGPKADGTIPEIQRQRLLDIGAWLKANGEAIYGTTYWNRAEEKGGPDDVRYTAKDATLYATALKWPGEQLTLGADLPVDHSTRITMLGSGARLSWSRDEQGRVVVNTPQEAGKHAYVFKIETPGVRSLLRTSSSLAKEIAPGRTISGELTVTNPGKRHTPATKLSLTVPQGWTATLGAPRVRPLGPGESVKVPISVSAPEGVAPAPYTLGLYQRTGRMGTTTALPLTVNRPNLSLGKPATQKSTGYDAPASRAVDGNTGGDWSAGSTTHTAEPEKQAWWQVDLGASARLDSVDVWNRLDCCADRLKDFWVMASDQPFTTDDLDQARTAPGVTAVHVGEQAGSPSKVKLPEGTRGRYVRIQLASPSNPLSLAEVQVRGSMARPNLSLGKPATQKSTGYDAPASRAVDGNTGGDWSAGSTTHTAEPEKQAWWQVDLGASARLDSVDVWNRLDCCADRLKDFWVMASDQPFTTDDLDQARTAPGVTAVHVGEQAGSPSKVKLPEGTRGRYVRIQLASPSNPLSLAEVQVRLEHHHHHHS
# What was measured:
# Assay in all cases: glycan array binding signal (z-score within array); higher = stronger binding
# Conditions in all cases: glycan notation: IUPAC condensed, linker removed
# [1] = target: Man(a1-2)Man(a1-3)[Man(a1-2)Man(a1-6)]Man
# How it was run: (§1)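 The binding signal is a Z-score computed within each array. Data were drawn from 3228 arrays in the Consortium for Functional Glycomics database, restricted to those with a known protein sequence. Scores were averaged over arrays of the same protein sequence at different concentrations or buffers, and over linkers, and negative values can be taken as non-binding.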
# [2] = target: Man(a1-2)Man(a1-3)[Man(a1-2)Man(a1-6)]Man(a1-6)[Man(a1-2)Man(a1-2)Man(a1-3)]Man
# How it was run: as §1
# [3] = target: Man(a1-2)Man(a1-3)[Man(a1-2)Man(a1-6)]Man(a1-6)[Man(a1-2)Man(a1-2)Man(a1-3)]Man(b1-4)GlcNAc(b1-4)GlcNAc
# How it was run: as §1
# [4] = target: Man(a1-2)Man(a1-3)[Man(a1-6)]Man(a1-6)[Man(a1-2)Man(a1-3)]Man(b1-4)GlcNAc(b1-4)GlcNAc
# How it was run: as §1
# [5] = target: Man(a1-2)Man(a1-6)[Man(a1-3)]Man(a1-6)[Man(a1-2)Man(a1-2)Man(a1-3)]Man
# How it was run: as §1
# [6] = target: Man(a1-2)Man(a1-6)[Man(a1-3)]Man(a1-6)[Man(a1-2)Man(a1-2)Man(a1-3)]Man(b1-4)GlcNAc(b1-4)GlcNAc
# How it was run: as §1
# Man(a1-3)[Man(a1-6)]Man = target: Man(a1-3)[Man(a1-6)]Man
# How it was run: as §1
# [7] = target: Man(a1-3)[Man(a1-6)]Man(a1-6)[Man(a1-2)Man(a1-3)]Man(b1-4)GlcNAc(b1-4)GlcNAc
# How it was run: as §1
# [8] = target: Man(a1-3)[Man(a1-6)]Man(a1-6)[Man(a1-3)]Man
# How it was run: as §1
# [9] = target: Man(a1-3)[Man(a1-6)]Man(a1-6)[Man(a1-3)]Man(b1-4)GlcNAc(b1-4)GlcNAc
# How it was run: as §1
# [10] = target: Man(a1-3)[Man(a1-6)]Man(b1-4)GlcNAc(b1-4)GlcNAc
# How it was run: as §1
# [11] = target: Man(a1-3)[Man(a1-6)]Man(b1-4)GlcNAc(b1-4)[Fuc(a1-6)]GlcNAc
# How it was run: as §1
# Man(a1-6)Man = target: Man(a1-6)Man
# How it was run: as §1
# Man(b1-4)GlcNAc = target: Man(b1-4)GlcNAc
# How it was run: as §1
# MurNAc(b1-4)GlcNAc = target: MurNAc(b1-4)GlcNAc
# How it was run: as §1
# Neu5Ac(a2-3)Gal = target: Neu5Ac(a2-3)Gal
# How it was run: as §1
# [12] = target: Neu5Ac(a2-3)Gal(b1-3)GalNAc
# How it was run: as §1
# [13] = target: Neu5Ac(a2-3)Gal(b1-3)GalNAc(b1-3)Gal(a1-4)Gal(b1-4)Glc
# How it was run: as §1
# [14] = target: Neu5Ac(a2-3)Gal(b1-3)GalNAc(b1-4)Gal(b1-4)Glc
# How it was run: as §1
# [15] = target: Neu5Ac(a2-3)Gal(b1-3)GalNAc(b1-4)[Neu5Ac(a2-3)]Gal(b1-4)Glc
# How it was run: as §1
# [16] = target: Neu5Ac(a2-3)Gal(b1-3)GalNAc(b1-4)[Neu5Ac(a2-8)Neu5Ac(a2-3)]Gal(b1-4)Glc
# How it was run: as §1
# [17] = target: Neu5Ac(a2-3)Gal(b1-3)GalNAc6S
# How it was run: as §1
# [18] = target: Neu5Ac(a2-3)Gal(b1-3)GlcNAc
# How it was run: as §1
# [19] = target: Neu5Ac(a2-3)Gal(b1-3)GlcNAc(b1-2)Man
# How it was run: as §1
# [20] = target: Neu5Ac(a2-3)Gal(b1-3)GlcNAc(b1-2)Man(a1-3)[GlcNAc(b1-4)][Neu5Ac(a2-3)Gal(b1-3)GlcNAc(b1-2)Man(a1-6)]Man(b1-4)GlcNAc(b1-4)GlcNAc
# How it was run: as §1
# [21] = target: Neu5Ac(a2-3)Gal(b1-3)GlcNAc(b1-2)Man(a1-3)[Neu5Ac(a2-3)Gal(b1-3)GlcNAc(b1-2)Man(a1-6)]Man(b1-4)GlcNAc(b1-4)GlcNAc
# How it was run: as §1
# [22] = target: Neu5Ac(a2-3)Gal(b1-3)GlcNAc(b1-2)[Neu5Ac(a2-3)Gal(b1-3)GlcNAc(b1-4)]Man(a1-6)[Neu5Ac(a2-3)Gal(b1-3)GlcNAc(b1-2)Man(a1-3)]Man(b1-4)GlcNAc(b1-4)GlcNAc
# How it was run: as §1
# [23] = target: Neu5Ac(a2-3)Gal(b1-3)GlcNAc(b1-3)Gal(b1-3)GlcNAc
# How it was run: as §1
# [24] = target: Neu5Ac(a2-3)Gal(b1-3)GlcNAc(b1-3)Gal(b1-4)GlcNAc
# How it was run: as §1
# [25] = target: Neu5Ac(a2-3)Gal(b1-3)GlcNAc(b1-3)GalNAc
# How it was run: as §1
binder,measurement,setting,value
B1,glycan array binding signal (z-score),[1],-0.55
same,glycan array binding signal (z-score),[2],-0.342
same,glycan array binding signal (z-score),[3],-0.104
same,glycan array binding signal (z-score),[4],-0.352
same,glycan array binding signal (z-score),[5],-0.393
same,glycan array binding signal (z-score),[6],0.248
same,glycan array binding signal (z-score),Man(a1-3)[Man(a1-6)]Man,0.008
same,glycan array binding signal (z-score),[7],0.102
same,glycan array binding signal (z-score),[8],-0.243
same,glycan array binding signal (z-score),[9],-0.305
same,glycan array binding signal (z-score),[10],-0.26
same,glycan array binding signal (z-score),[11],0.748
same,glycan array binding signal (z-score),Man(a1-6)Man,-0.483
same,glycan array binding signal (z-score),Man(b1-4)GlcNAc,-0.494
same,glycan array binding signal (z-score),MurNAc(b1-4)GlcNAc,-0.473
same,glycan array binding signal (z-score),Neu5Ac(a2-3)Gal,-0.303
same,glycan array binding signal (z-score),[12],-0.426
same,glycan array binding signal (z-score),[13],-0.194
same,glycan array binding signal (z-score),[14],0.087
same,glycan array binding signal (z-score),[15],0.247
same,glycan array binding signal (z-score),[16],-0.156
same,glycan array binding signal (z-score),[17],-0.306
same,glycan array binding signal (z-score),[18],-0.534
same,glycan array binding signal (z-score),[19],-0.44
same,glycan array binding signal (z-score),[20],0.33
same,glycan array binding signal (z-score),[21],0.218
same,glycan array binding signal (z-score),[22],0.503
same,glycan array binding signal (z-score),[23],-0.407
same,glycan array binding signal (z-score),[24],-0.482
same,glycan array binding signal (z-score),[25],0.2

# — the supplement of paper PMC8728848
